Source: the supplement of paper PMC3334620
Over roughly 33,000 sequences, “E-score (-0.5 to 0.5)” has its median near -0.056; the highest 2% begin near 0.38. This is one part of the list.

Target: Stb4 (UniProt P50104)
Test: PBM E-score (8-mer binding enrichment) (E-score (-0.5 to 0.5)); higher = stronger / more preferred TF binding; most listed sequences are background and not binding sites
Details: protein concentration: 200 nM; construct: GST-DNA-binding domain
In short: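 Universal all-10-mer Agilent arrays, double-stranded by primer extension on fresh or once-stripped slides, were probed with about 100-200 nM GST-tagged yeast transcription factors made by PURExpress. Fluorescent anti-GST detected bound protein, and masliner normalised the scans. E-scores from the Universal PBM Analysis Suite were given to each ungapped eight-base word pooled with its reverse complement.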

Row | Sequence | PBM E-score
1 | CACTCTGC | -0.179
2 | GTCCGTGA | -0.0305
3 | CGTCAAGC | 0.00318
4 | CAAGAAGG | -0.229
5 | AATGTTCA | 0.0228
6 | GTGGACCA | -0.0658
7 | GCGGGGAA | 0.124
8 | GAAGGCCC | 0.0595
9 | CCTTCCCG | 0.301
10 | CTGCCAAG | -0.234
11 | AGAAAAAG | 0.103
12 | AGTCAGGA | -0.144
13 | TCGAGAAA | -0.141
14 | AGGGAAGC | -0.102
15 | TTCAAGAA | 0.146
16 | CCGAATGC | 0.332
17 | TCCTAGCA | -0.0956
18 | GGTTGTAA | -0.063
19 | CGGGCCGA | 0.435
20 | CTACGTGC | -0.23
21 | ATTTTATG | 0.133
22 | CCAGTACG | -0.121
23 | AGACATAA | 0.064
24 | GCAGAAGA | -0.126
25 | GTCTTTAA | -0.107

Row | Sequence | PBM E-score
26 | CCGTATAG | -0.0927
27 | ACATAGCA | -0.15
28 | TAGGAATA | -0.041
29 | ACTGCTCG | 0.11
30 | CTATTTAA | 0.133
31 | AGTCTGAG | -0.237
32 | ATCGCGGG | 0.123
33 | AGTTAAGG | -0.231
34 | GGATGGAA | 0.184
35 | AATGGCCT | -0.083
36 | ATCAGCAG | -0.167
37 | CACTGGAG | -0.343
38 | AGGAGCCT | -0.282
39 | ACAGCGTC | -0.00871
40 | GCTTGGGA | -0.195
41 | ACATCCGG | 0.447
42 | CGGACGCC | 0.191
43 | ACACTCCC | 0.0452
44 | CATTTTCA | 0.035
45 | CAGGAATA | -0.15
46 | GGTCCGTA | 0.151
47 | TTCCGAAA | 0.468
48 | CCAAGTTA | -0.175
49 | ATTTAATC | 0.144
50 | TAAGTACA | -0.0911

Row | Sequence | PBM E-score
51 | GGGTCCAA | 0.136
52 | GGAATAAA | 0.23
53 | CGGACCTA | 0.162
54 | ATCATAAA | -0.088
55 | AAATGCCC | -0.122
56 | ACCTTCCG | 0.4
57 | ACGATTTG | -0.231
58 | CTATTAGC | -0.0309
59 | AACTGGGT | 0.0216
60 | CTGGCTTA | -0.0919
61 | GGTTCGCA | 0.0434
62 | AATTTTAA | -0.00885
63 | GCGGTGCA | -0.283
64 | ATAGCCAA | 0.0207
65 | AATGAGTA | 0.102
66 | ATTAAATG | 0.208
67 | CTGTACCC | 0.207
68 | GGTAAAGA | 0.163
69 | CGTCTGAA | -0.221
70 | ACAGCACG | 0.0954
71 | CGCGTCGA | 0.0608
72 | AAAGGCAC | 0.0606
73 | ACGTACGT | -0.465
74 | ACTACTCA | -0.203
75 | CGGCCTAG | -0.0479

Row | Sequence | PBM E-score
76 | CTAAAACC | 0.046
77 | ACCGAGCG | 0.38
78 | ATCATTTC | 0.135
79 | ATACAACG | -0.0297
80 | AGTACAAG | -0.134
81 | AACACCAA | -0.25
82 | ATAGACTC | -0.233
83 | CAACCTTA | -0.149
84 | CTTAATTA | -0.157
85 | CAGACTAC | -0.157
86 | CAAGCCAA | -0.0961
87 | GAGTAGCA | 0.0461
88 | ACATACGA | -0.208
89 | ACATCGTA | 0.0349
90 | AGTACTGG | -0.198
91 | TCGTTCCA | -0.124
92 | ATGTTTGC | -0.107
93 | ATTAAAGA | -0.135
94 | GTGATGGA | -0.00596
95 | TCCGTGCA | 0.208
96 | AGGCCTGG | -0.235
97 | ACACAGCG | -0.099
98 | TAGTCCAA | -0.0883
99 | CGTTCCAC | -0.00385
100 | ATCCATTC | 0.0957

Row | Sequence | PBM E-score
101 | AAAGCGAA | -0.114
102 | CATTGGGG | -0.216
103 | CAGGGTTC | -0.0742
104 | AGTCTAGG | -0.209
105 | AGGGGCAA | -0.0863
106 | AAGTGATG | 0.039
107 | AGTGTTGA | 0.0066
108 | GTAAGACA | -0.166
109 | TATTTAAA | 0.0539
110 | AGTTCCAA | 0.012
111 | AATTGCAC | -0.0455
112 | CGTACTGC | -0.165
113 | GGTATTAC | 0.168
114 | GGGACCGA | 0.265
115 | AAACAAGG | -0.0788
116 | AATACCCA | -0.00809
117 | AACTCGTC | -0.217
118 | ACTTCTCG | 0.116
119 | AAGACTGT | -0.195
120 | GGATTCGA | -0.0152
121 | AAGTTGAG | -0.0828
122 | CAGGTCGA | -0.162
123 | ACGAAACC | -0.0179
124 | GCACCGAA | 0.241
125 | AATTCGAG | -0.242

Row | Sequence | PBM E-score
126 | AGAAAAAA | 0.082
127 | ATCCTTGG | 0.0257
128 | CCATTTAA | -0.147
129 | CACTCAGC | -0.00258
130 | CAGGGGGC | -0.159
131 | AGCGGTAG | -0.176
132 | GCCCGCGA | 0.0176
133 | AAAATCGG | 0.265
134 | ACCTGTAT | -0.202
135 | GTCCTGGA | -0.228
136 | CCGCGTTC | 0.28
137 | GACGATGA | -0.043
138 | CGCGATGC | -0.0772
139 | CATATCGG | 0.258
140 | AGTTCCCA | -0.0388
141 | AGGGTCCG | 0.208
142 | ACAGGTGA | -0.166
143 | CTTCTCCA | -0.262
144 | CAAATATA | -0.0664
145 | CAGGACGC | -0.21
146 | TGTGTCAA | -0.161
147 | CAGTACCG | 0.183
148 | TAAGCAAA | -0.185
149 | GTTTGAGA | -0.186
150 | GCAACGGA | 0.245

Row | Sequence | PBM E-score
151 | GACGTTTA | -0.24
152 | CTGTCTAC | -0.145
153 | GAAAAATC | 0.0101
154 | AGGATGTA | -0.177
155 | ACTGGCCG | -0.0328
156 | CGTAGAAC | -0.0804
157 | ATAGAAGC | -0.0927
158 | ACAATCTC | 0.12
159 | AACTCACC | -0.0932
160 | ATTCATCA | -0.0146
161 | ACAGCCAG | -0.233
162 | ACTCTTCC | 0.141
163 | CGATGGAA | 0.0298
164 | AACACTGG | -0.15
165 | ACGCGGCC | -0.113
166 | CGGAAGGC | 0.373
167 | GAAGACCA | 0.00946
168 | ATAAGAGC | -0.0564
169 | GAGTAGAA | -0.14
170 | AGGTAGTA | -0.0405
171 | ACGCAGCG | -0.223
172 | CAGCCCGA | 0.216
